The list shows a part of the results.
These sequences were tested on PF3D7_0420300 AP2 domain 1 (GST-tagged) (assay: gcPBM binding intensity (ln(normalized median fluorescence intensity)); higher = stronger DNA binding).
Procedure, shortened: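 Binding intensity values are the highest Masliner-normalised natural-log median intensity among replicate spots of either probe orientation. The binding step lasted 1 h in 1× PBS with 1% milk, 0.2 mg/ml BSA, 0.5% salmon testes DNA and 0.03% Triton X-100, using GST-tagged P. falciparum DNA-binding domains expressed in E. coli on an Agilent 4 × 180k array of primer-extended double-stranded 36-bp intergenic genomic probes plus negative controls. Alexa488 anti-GST antibody and a 488 nm scan detected bound protein.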

Sequence	gcPBM binding intensity (ln)
TTATAAGATTTATGTACACACATATACTCACCTCTA [CACACA_site729]	9.53
CCTTAAAATAAGATATGTACGCAAAGGAAAACAAAG [XGTACX_site6057]	9.5
TGTGTAAGATCTTGGATGATGATAAGAATCTACTAG [CACACA_negctrl_site1167]	9.11
TCCATATATGCCTTATGTACATATACCAAATTAACC [XGTACX_site6513]	9.13
TTTGGCTAGTTAGGCCGTACATGTAAATAATATATA [XGTACX_site1138]	9.16
TTGGAAAAAGTGAAATGTACATATATATTTATTATT [XGTACX_site6946]	9.16
AATGAATGTAAGAAAATACACACTAGTATAGTAACA [CACACA_site1955]	9.65
AATAATAAAGTGAACACACACATATAACATCTATAT [CACACA_site7868]	9.84
AAAGGATTTATACTAGTGCAAAAATATAAAAATATA	9.18
GAAGTTTTTTAAAGATGTACTTTTTAAAAATAATCT [XGTACX_site263]	8.85
TATATAAATAGACACACACACACCTTATAATTACTA [CACACA_site7828]	10
ATAATAATTAACCTATGTACATAGGAAAGTCATAAA [XGTACX_site4387]	9.29
AAAAAAAAAAAACACACACACACATACACATACATA [CACACA_site2858]	10.2
GAAGAAAAATAAAAAGTGCAAAAAAAGTAAAAATTT [GTGCAC_site9897]	9.57
TATGTATGTGCTTGTGCGCACCGATAATATAGCCAA	9.24
TGCTATAATTTATATACACACAAATATATACGCATA [CACACA_site4096]	9.46
TCTCATAGTAGACACACACACACACGCACATATATA [CACACA_site6916]	10.4
TTTTATGAAAAGTATTGTACGTATAATTTATATGTA [XGTACX_site1639]	9.04
ACATAAGACACAAATACACACAAAAATATGTAACAA [CACACA_site7836]	9.71
AAAAAAAAAATTAAATGTACACACACCTTAAACAAT [XGTACX_site3848]	9.83
TAATGTATTATATTTTGTTTTCTTCCACCAAAAAAA [XGTACX_negctrl_site64]	9.04
ACCCATATAATATATACACACATATATATATATATA [CACACA_site4731]	9.52
ATTTTCTTATATATATTTTGTATATATTTTGTACAT [CACACA_negctrl_site1496]	9.64

Sequence	gcPBM binding intensity (ln)
AAACAATATTCTCAAGTGCAAAAAGAAAAAAGAAAT	9.49
TACTTGTTATTAACATGTACAAAAAAAAAAAAAATT [XGTACX_site1338]	9.08
TTTATTTTTATTTAAAGTACATATCCATTTATTCCT [XGTACX_site1914]	9.15
AATGTACCCACACCCACACACAAACAAATATATATA [CACACA_site2751]	9.85
AGATTAAAATATATACGTACATATTATTAATTAATA [XGTACX_site3487]	9.15
ATAGGATGCATATGAGTGCATTCTGTGTTGTTATAA	9.12
ATATATATATATAATAAACACACAAATAGATATAAC [CACACA_site9234]	9.9
TATATATATATATATACATGCATACATATACATACA [TGCATGCA_site897]	9.14
CTACCTTTAATATATACACACACATAAAAAAAATAT [CACACA_site8548]	9.98
AGATAAGATATATACACACACATAAATACGTACAAA [CACACA_site6639]	10.1
ATATTTACAAGTAATAGTACAGTTAATTATATAAAA [XGTACX_site4856]	9.25
ATTATATAGCTAAAAAAAATAAATTAAAAATATTAA [TGCATGCA_negctrl_site505]	9.11
AAGAATGTTATTAGTACACACAATTATTATAGAAAT [CACACA_site7714]	9.51
AATGTACAAATACGTACACACATATTTATATTTATA [CACACA_site6833]	9.57
TAAAAATTGAAGCACACACACAAAAGAAATACAATA [CACACA_site1113]	10.2
TTTTTTTTTACTTGTTGTACTTTTTCAAGGTATTGT [XGTACX_site7778]	9.42
ATATAAAAAAATTGCACACATAAATAAATACAGATA [CACACA_site4806]	9.66
TATATATTTCATCCTTGTACACATTTGTGTTTACAT [XGTACX_site1132]	9.45
GTATTGCATGAGGACACACACAAAAAAAATATAGAT [CACACA_site6500]	9.79
AATAAATAAATATATATATATATATATATATATATA [CACACA_negctrl_site365]	8.96
TATCAAAATTGTAATTGTACTTGTAAGTGGATATAT [XGTACX_site5949]	9.2
ACAATTTACACTTAAACACACAAAAAAAAGTTATAT [CACACA_site7056]	9.56
TAGTTTTTTATATATTGTACAAATAATATATGATAT [XGTACX_site4220]	9.25

Sequence	gcPBM binding intensity (ln)
TTTTTTTTTTTTTTCTTACAATTTATTGAACAAATG [XGTACX_negctrl_site515]	8.84
AGTGATTATTAATAATGTACATATCTATAAATATAT [XGTACX_site4734]	9.23
TCACCATATAAACGTGCACACTACAAAAATATATAA [CACACA_site5413]	9.26
TATTTATTTAAAAATTGTACGTAGGATTATACACTT [XGTACX_site286]	9.07
CTTTTATTTTATTTTAGTACGCAACATTCTCTATAT [XGTACX_site7279]	9.33
ATATAAATATTATAATGTACATATAATATATTTATT [XGTACX_site5212]	9.09
ATCTCTGTATGTTAGACACACATATTTTAATATGTT [CACACA_site4244]	9.34
TAAAATTTGTACATAGTGCAATTTTTTTTTTTTTTT	8.9
ATATATTGCACTTTTTGTACATAATGAAAAATTTTT [XGTACX_site8223]	9.25
TACATATTGATATATACACACAAAAAAATAAATTCT [CACACA_site6198]	9.57
ACCTTAATAAAAAAAAGTACAAACATGTTCAAATTG [XGTACX_site1556]	9.28
AATTCGTACCTCATTTGTACATATATATATATATAT [XGTACX_site5513]	9.49
TTTTTTATAGTACATTACCAAAAAAAAAAAAAAAAA [GTGCAC_negctrl_site549]	8.32
CATACACCCATACATACACACATACAGATATATATA [CACACA_site5123]	9.74
ATATCATTTTCCTGCACACATAAATTTATATAATAT [CACACA_site1048]	9.76
ACACATAAATGAATAAATAAATAAATATAAATATAA [CACACA_negctrl_site1784]	9.41
AGCAAAACATAAAATAGTACACATTTAACAAAAAAA [XGTACX_site2921]	9.48
AAAAGAACAATGAAGTGTACTAATAATTATTTATGT [XGTACX_site6649]	9.35
TTTTATCATCTTTTTACATTATGTATAAATATTTTC [CACACA_negctrl_site206]	9.23
ATATAATATATTTTTGAACACACAATATATATATAT [CACACA_site9368]	9.31
TAACTAATATATAAAACACACATCATAAAAATATAA [CACACA_site768]	9.57
TTTTGTTGAAAAGTAAGATATTCCAACATGTTTTTA [CACACA_negctrl_site391]	9.03
TATATATTATAAAATTGTACATATATTAAATTTTTT [XGTACX_site5852]	8.84

Sequence	gcPBM binding intensity (ln)
CAAAACAAAACGTATGCACACAATTAAAATATTAAA [CACACA_site5815]	9.54
AAATGTTGAGCAGTACAAAAAAAAAAAAAAAAAAAA [GTGCAC_negctrl_site518]	8.45
CATTTATATAAAAGAACACACATATAAAATATTATT [CACACA_site3601]	9.44
TTTTTTTTTTAATTGGGTACATATATAATTTAAGAA [XGTACX_site2732]	8.76
AAGATACCAATGAAATGTACATATATATAAATATAA [XGTACX_site2135]	9.35
TTCTTACATGAGTGTACACACTTTTTTTCAGAAAAT [CACACA_site4215]	9.19
GGTGGGGAGGAGTAATGTACAAATTAACATATTATG [XGTACX_site6666]	9.52
TTATAAAATATTTATGCATGTGAAGAATATTATAAA [TGCATGCA_site1047]	9.17
GAAAAAAGTATCAAGGTGCGTATATACATCAAAATA	9.47
AATAGTCGGGTGCATACACACCTTAAATATAATATA [CACACA_site8271]	9.25
TTTGAATAAAAACAAAAAATTAAATTAAATTAAATA [CACACA_negctrl_site312]	8.93
ATTGTGTTAATAAAATGTACATTTTCTCTACATTAA [XGTACX_site2766]	9.23
TATTTATAATTATAATAATATATATATATATATATA [TGCATGCA_negctrl_site173]	8.83
ATATATATATATGTATGTACGTATGTATTTACTGCT [XGTACX_site3839]	9.36
TTCATACATATTTGAAGTACATTTAAAAATGTCCTT [XGTACX_site747]	8.93
TCCAATATATTTATGAGTACTTATAAATTATACGTT [XGTACX_site742]	9.23
ATATATGTGTATGTATGTACTTATATTTTTTTTTAT [XGTACX_site1733]	9.41
GCAAATCAATTTTTTTTTAAAACTCATTTTTTCGTT [CACACA_negctrl_site1136]	9.22
TCCGTTATATATGTGTGTACATATAATATATCCTCA [XGTACX_site2588]	9.57
AAAAATGAAAGTAAGACATGCATGGAATTTTTTTTA [TGCATGCA_site347]	9.2
